This note sets out measurements from PubChem BioAssay AID1963576 (National Center for Advancing Translational Sciences (NCATS), 2024).

The whole screen tested about 46,000 compounds, of which about 60 (0.1%) were called active. Another 3% or so got no clear call; they are omitted. The call rests on the fitted dose curve; in most records, active means well fitted inhibition curve with a large enough effect; inconclusive means small, poorly fitted or top-dose-only effect; inactive means no such curve, though single readings can be large or run the other way. The list shows a part of the results.

This assay can be described thus: Primary qHTS assay for Inhibitors of ovarian cancer metastasis using an organotypic tumor microenvironment (TME) model. Further: nearly all actives have a fitted effect of over 65% in size.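 On activity change, negative = inhibition: plate controls were DMSO wells for no effect and tomatine positive control wells for full effect.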 Particulars: SKOV3ip1-GFP adhesion/invasion on 3D omental model, fluorescence; series mostly up to 45.8 µM; activity change, negative = inhibition: at the top concentration. A digest of the protocol: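 qHTS, 4-pt dose (0.36-46 umol/L); SKOV3ip1-GFP, 1,200 cells/well, no FBS; primary omental fibroblast/mesothelial co-culture 48 h pre-grown; 2 h RT + 16 h 37 C; PBS wash, 4% PFA; GFP count 488/509 nm.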
(Quantitative high-throughput screening tests each substance at several concentrations.)
With `O=C(COc1ccc(Cl)cc1)NCCc1csc(-c2ccc(F)cc2)n1`, the “activity change, negative = inhibition” value was inactive: 3.95%.
On to `CCN(CC)C(=O)c1sc2c(c1C)c(=O)n(-c1ccc(Cl)c(Cl)c1)c(=O)n2CC(=O)Nc1cccc(OC)c1`, for which the compound was called inactive.
On to `CCOC(=O)c1nnn(CC(=O)NC(=O)Nc2cccc(CC)c2)c1C(=O)OCC`, for which the “activity change, negative = inhibition” value was inactive: -19.3%.
On to `O=C(Nc1ccccc1F)c1ccc(-c2ccccc2)s1`, for which the compound was called inactive.
For the compound `COC(=O)c1c(N)n(-c2ccc(OC)c(Cl)c2)c2nc3ccccc3nc12`, the call was inactive.
In the case of `CCOc1ccc(CCNC(=O)c2cccc(-n3c(C)nc4cccnc43)c2)cc1`, the “activity change, negative = inhibition” value was inactive: 28%.
The same measure, in the same setting: to `COc1ccc(-c2nnc3c4ccccc4c(-c4ccccc4)nn23)cc1` belongs inactive: 21.7%.
Same read-out and setting: the figure for `COc1ccc(OC)c(CNC(=O)C2CCN(c3ncnc4c3nc3n4CCCCC3)CC2)c1` is inactive: -7.56%; for `CC(=O)c1cccc(NC(=O)c2nc3ccccc3nc2N2CCCCC2)c1` it is inactive: 4.23%.
Take `Cc1ccc(Cl)cc1N1CCN(C(=O)C2CCN(S(=O)(=O)c3ccc4c(c3)oc(=O)n4C)CC2)CC1`: the compound was called inactive.
On to `O=C(CCn1nc(-c2ccc(Cl)cc2)c2ccccc2c1=O)Nc1ccc(OC(F)(F)F)cc1`, for which the “activity change, negative = inhibition” value is inactive: -3.82%.
Same read-out and setting: to `O=C(Nc1ccc(F)cc1Cl)C1Cc2ccccc2N1C(=O)c1ccccc1` (stereo unspecified) belongs inactive: -9.28%.
The same measure, in the same setting: the figure for `Cc1ccc(C2=NN(CC(=O)NCCc3ccc(Cl)cc3)C(=O)CC2)cc1` is inactive: -9.89%; for `CCOc1ccc(-c2cn3c(n2)sc2cc(C(=O)NCCc4ccc(OC)c(OC)c4)ccc23)cc1` it is inactive: -5.42%.
On to `CCC(=O)N1CCc2cc(S(=O)(=O)CCC(=O)N3CCN(c4ccc(C(C)=O)cc4)CC3)ccc21`, for which the call was inactive.
As for `O=C(Nc1cc(F)ccc1F)c1cc2nc(-c3ccco3)cc(C(F)(F)Cl)n2n1`, the “activity change, negative = inhibition” value was inactive: 15.8%.
As to `CN1C(=O)C2(c3ccccc31)N(c1ccc(F)c(Cl)c1)C(=O)CS2(=O)=O` (stereo unspecified), the compound was called inactive.
The same measure, in the same setting: to `Cc1cc(C)c2c(n1)nn1c(C)c(CCC(=O)NCc3ccc(Cl)cc3)c(C)nc21` belongs “inactive”.
Consider `COC(=O)c1cc(S(=O)(=O)NCC2CCN(Cc3ccccc3F)CC2)c[nH]1`, for which the “activity change, negative = inhibition” value is inactive: 21.3%.
`CCC(C)(C)NC(=O)Cn1c(=O)ccc2cc(S(=O)(=O)N3CCC(C)CC3)ccc21`: the “activity change, negative = inhibition” value was inactive: -2.85%.
`CCOC(=O)N1CCC(NC(=O)c2ccc3c(c2)N(Cc2cc(C)ccc2C)C(=O)c2ccccc2S3=O)CC1` (stereo unspecified): the “activity change, negative = inhibition” value is inactive: 3.18%.
Regarding `O=C(CSc1nccn1Cc1ccccc1)Nc1ccc2c(c1)OCO2`, the “activity change, negative = inhibition” value is inactive: 12%.
As for `Cc1cccc(NC(=O)N2CCC(n3c(C)nc4cccnc43)CC2)c1`, the “activity change, negative = inhibition” value is inactive: 13.7%.
Turning to `COc1ccc(CCNC(=O)CCn2c(=O)c3cccn3c3cccnc32)c(OC)c1OC`, the call was inactive.
As for `CN(C(=O)c1cc2c(=O)n3ccccc3nc2n1C)c1ccccc1`, the “activity change, negative = inhibition” value was inactive: -12.4%.
With `CC(C)c1cnn2c(NCc3ccccc3)cc(N[C@@H](CO)[C@H](O)CO)nc12`, the “activity change, negative = inhibition” value is inactive: 20.3%.
The same measure, in the same setting: to `CCOc1cc(C(=O)NCCc2csc(-c3ccc(C)cc3)n2)cc(OCC)c1OCC` belongs inactive: 2.06%.
Same read-out and setting: the figure for `CCOC(=O)c1c(NC(=O)CSc2nc(-c3ccccc3)cc(C(F)(F)F)n2)sc(C)c1C` is inactive: 2.25%.
Same read-out and setting: to `Cn1cc(CCCC(=O)NCc2ccccc2Cl)c2ccccc21` belongs inactive: 17%.
As for `CCOc1ccc(CCNC(=O)Cn2nnc(-c3ccc(C(F)(F)F)cc3)n2)cc1OCC`, the call was inactive.
On the same count and under the same terms, to `CC(=O)Nc1nnc(SCc2cc(=O)c3cccc(Cl)c3[nH]2)s1` belongs “inactive”.
For `CCOc1ccc(CCNC(=O)CN2C(=O)c3cccnc3Oc3ccc(Cl)cc32)cc1`, the “activity change, negative = inhibition” value was inactive: 3.45%.
Consider `O=C(c1ccc([N+](=O)[O-])cc1)N1CCN(c2ccc(Nc3ccccc3)nn2)CC1`, for which the compound was called inactive.
As for `Cc1ccc(CNc2ccc(-c3nc(-c4ccccn4)no3)cc2[N+](=O)[O-])cc1`, the call was inactive.
As for `CC(=O)N1c2ccc(S(=O)(=O)N3CCCCCC3)cc2CC1C(=O)NCc1ccccc1F` (stereo unspecified), the “activity change, negative = inhibition” value was inactive: -27.9%.
`CCOc1ccc(OCC)c(Nc2cc(C)nc3nc(-c4ccco4)nn23)c1`: the “activity change, negative = inhibition” value was inactive: -2.47%.
The same measure, in the same setting: to `CCOC(=O)c1c(S(=O)(=O)N2CCC(C(=O)Nc3ccc(OCC)cc3)CC2)c(C)n(C)c1C` belongs inactive: 16.1%.
Same read-out and setting: to `CCCCN(CCCC)CCNC(=O)c1cn(C)c2ccc(S(=O)(=O)N3CCCC3)cc2c1=O` belongs inactive: 8.37%.
Same read-out and setting: the figure for `CCc1cnc2c(c1SCC(=O)N1CCC(C)CC1)c(=O)n(C)c(=O)n2C` is inactive: 9.02%.
In the case of `Cc1nn(CCC(=O)N2CCN(c3ccccc3)CC2)c(C)c1S(=O)(=O)N1CCCC1`, the call was inactive.
Turning to `Cc1c(NC(=O)Nc2ccc(F)c(Cl)c2)c(=O)n(-c2ccccc2)n1C`, the “activity change, negative = inhibition” value is inactive: -8.08%.
Still for that read-out and setting: the figure for `O=C(NCc1ccccc1Cl)c1ccc(Nc2nc3ccccc3n3nnnc23)cc1` is inactive: -8.11%; for `Cc1ccc(OCc2nc(-c3ccc(C(=O)N4CCN(c5ccccc5)CC4)cc3)oc2C)cc1` it is inactive: -0.55%; for `CCc1ccc(C2c3c(-c4cc(C)ccc4O)n[nH]c3C(=O)N2Cc2cccnc2)cc1` (stereo unspecified) it is inactive: -18.5%.
Still for that read-out and setting: the figure for `COc1ccc(OC)c(NC(=O)N2c3ccccc3Sc3ccccc32)c1` is inactive: 2.99%.
Turning to `Cc1ccc(CNC(=O)c2ccc3c(c2)N(Cc2cccc(C)c2)C(=O)CS3)cc1`, the outcome was inactive.
